Assay results as given in the supplement of paper PMC4166925.
± gives the standard deviation of the averaged measurements. In all, about 33,000 sequences were measured (“E-score (dimensionless, -0.5 to 0.5)”: median about -0.049, highest 2% from about 0.37 on). The list shows a part of the results.

What follows are sequences tested on T1, PmTbr T-box DNA-binding domain (GST fusion) (assay: PBM E-score of 8-mer (E-score (dimensionless, -0.5 to 0.5)); Tbr is Tbrain of the sea star Patiria miniata (Pm) or the sea urchin Strongylocentrotus purpuratus (Sp); higher = stronger binding preference; most listed sequences are background and not binding sites). Details: the construct has about 5 more residues each side.
T1 sequence: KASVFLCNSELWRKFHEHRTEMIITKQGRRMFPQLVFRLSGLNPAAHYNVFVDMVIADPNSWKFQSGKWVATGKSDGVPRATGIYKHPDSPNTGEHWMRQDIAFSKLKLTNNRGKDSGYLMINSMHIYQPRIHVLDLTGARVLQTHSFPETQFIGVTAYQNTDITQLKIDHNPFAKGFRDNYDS
Method in brief: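 GST-fused Tbr T-box DNA-binding domains (the whole T-box plus about five flanking residues) were expressed in BL21 E. coli at 20 °C and purified by glutathione affinity chromatography. Universal Agilent oligonucleotide arrays were made double-stranded by primer extension, incubated with 200 nM protein in PBS (pH 7.5), then scanned and quantified. Every ungapped 8-mer was scored from probe intensities. The Universal PBM Analysis Suite gave each word an enrichment E-score, averaged over duplicate arrays.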

Row | Sequence | PBM E-score of 8-mer
1 | ACTACTCC | -0.212 ± 0.046
2 | GATGTATA | -0.0616 ± 0.063
3 | TCCTGGAA | -0.252 ± 0.046
4 | CCCACACC | 0.43 ± 0.019
5 | GGTGTTCA | 0.324 ± 0.0065
6 | AGGTGACC | 0.172 ± 0.052
7 | AGCAGCAT | -0.126 ± 0.0032
8 | CGAGCTGA | 0.0975 ± 0.039
9 | ACTTTTGC | 0.111 ± 0.018
10 | GTACCTAC | -0.272 ± 0.061
11 | ACCTGTTA | 0.338 ± 0.007
12 | CTCACCGA | 0.00965 ± 0.039
13 | AGACTAGC | -0.0927 ± 0.069
14 | CTAGCGTA | 0.0249 ± 0.015
15 | AAGTTGCT | 0.184 ± 0.0078
16 | CGCACTGA | 0.0701 ± 0.012
17 | ACAGGACA | 0.124 ± 0.026
18 | ACCCGCCG | -0.0199 ± 0.075
19 | GCTAAGGA | -0.08306 ± 0.00035
20 | CGACAGCG | 0.0991 ± 0.029
21 | TACGAATA | -0.232 ± 0.098
22 | GGACACTA | -0.00856 ± 0.0064

Row | Sequence | PBM E-score of 8-mer
23 | AGTATCGA | 0.0288 ± 0.027
24 | ACACCCAA | 0.368 ± 0.035
25 | AGGCATTG | -0.162 ± 0.068
26 | CAGTGGGG | -0.103 ± 0.035
27 | GAGGAAAC | -0.0461 ± 0.075
28 | ACCAGGCC | -0.1037 ± 0.00028
29 | TAAATCGA | -0.142 ± 0.0037
30 | CCCGCTAA | 0.279 ± 0.0095
31 | AACAGATA | 0.0778 ± 0.067
32 | ACCTATAA | 0.177 ± 0.018
33 | ATCGAGTC | 0.0243 ± 0.001
34 | CTGCTGTC | 0.0602 ± 0.021
35 | GACTTACA | 0.142 ± 0.0076
36 | CACTAGTA | 0.215 ± 0.033
37 | GCGGTGCC | 0.0932 ± 0.011
38 | GATGCCTA | -0.266 ± 0.048
39 | GATGCCAC | 0.182 ± 0.072
40 | AGTTTCGC | 0.261 ± 0.051
41 | ACCTTAAC | 0.0595 ± 0.0064
42 | GGTGTATA | 0.159 ± 0.024
43 | AACCGTCC | -0.225 ± 0.0078
44 | ATTAAGAG | -0.239 ± 0.14

Row | Sequence | PBM E-score of 8-mer
45 | ACCAGCCC | -0.239 ± 0.047
46 | ATCCGACA | 0.196 ± 0.028
47 | CACCACAC | 0.367 ± 0.018
48 | CGTGACAG | 0.27 ± 0.015
49 | CCGAAGCA | 0.0424 ± 0.051
50 | CAACATTG | 0.155 ± 0.054
51 | AGCGCGGG | 0.0685 ± 0.027
52 | CATGTAGA | -0.259 ± 0.061
53 | GCTGGATA | -0.236 ± 0.029
54 | ATCTGCAC | -0.008 ± 0.0075
55 | GACTTTCC | 0.078 ± 0.021
56 | AGACGATG | -0.249 ± 0.026
57 | CGCGGTGC | 0.0712 ± 0.026
58 | AGGGGAGG | -0.223 ± 0.07
59 | ATCCACAT | 0.0364 ± 0.013
60 | AAACAGTG | -0.0598 ± 0.022
61 | CAACTTCG | 0.118 ± 0.017
62 | AGCGTCCA | -0.302 ± 0.039
63 | AATATTTG | 0.0885 ± 0.074
64 | CTTCCTGA | -0.188 ± 0.079
65 | CGATTGAC | 0.0922 ± 0.053
66 | ATACGGGA | -0.232 ± 0.0065

Row | Sequence | PBM E-score of 8-mer
67 | ACCCGACA | 0.266 ± 0.011
68 | CCTATATA | 0.175 ± 0.035
69 | CAAGCTAA | -0.149 ± 0.029
70 | ACGCCAGA | 0.0369 ± 0.0034
71 | AGACTCCG | -0.194 ± 0.011
72 | CATATCAG | -0.15 ± 0.12
73 | GATTGCGA | 0.273 ± 0.036
74 | CGGTTGAC | 0.21 ± 0.018
75 | AGATTCTG | -0.0318 ± 0.08
76 | CGTAAAGA | -0.272 ± 0.013
77 | CTGCTAGA | 0.113 ± 0.039
78 | CAGACCCA | -0.0557 ± 0.00088
79 | GCGTCCTA | -0.189 ± 0.091
80 | CCCGGCCG | -0.0994 ± 0.0049
81 | GGGTACCC | 0.0133 ± 0.13
82 | CAAAGCCA | -0.257 ± 0.0098
83 | CATACATC | -0.0287 ± 0.017
84 | AATACTGG | -0.328 ± 0.014
85 | CCCAGCAC | 0.141 ± 0.038
86 | AATTACAA | -0.0953 ± 0.12
87 | AGATTTAT | -0.137 ± 0.015
88 | AACATAAA | -0.134 ± 0.054

Row | Sequence | PBM E-score of 8-mer
89 | GGGGACGA | -0.151 ± 0.12
90 | ACAACACG | 0.251 ± 0.017
91 | TTAGGCAA | 0.0112 ± 0.066
92 | CCATACGG | -0.15 ± 0.015
93 | ACTAGAGG | -0.17 ± 0.027
94 | ATCACTCA | 0.0656 ± 0.025
95 | GGGAGCGA | 0.0751 ± 0.0085
96 | GATCTAAA | -0.0647 ± 0.047
97 | GATACTCA | -0.141 ± 0.022
98 | GACTCGCC | -0.152 ± 0.047
99 | CCGAGTGA | 0.131 ± 0.02
100 | GGGATGCA | -0.256 ± 0.041
101 | ACAATCTA | -0.0816 ± 0.0069
102 | GCTTAGCC | -0.151 ± 0.029
103 | CATCTGGG | -0.104 ± 0.032
104 | CGCACACC | 0.325 ± 0.022
105 | ACGGCTTA | 0.0316 ± 0.018
106 | ATCTACCG | -0.157 ± 0.067
107 | TGACTGAA | 0.0885 ± 0.055
108 | AACTAGAG | -0.0673 ± 0.0029
109 | AGACACGA | -0.0791 ± 0.023
